In the supplement of paper PMC10338343:
± gives the standard deviation. This is a selection; strong and weak results do not stand in their true shares.

Tested on: MIWI (PIWIL1) piRISC loaded with L1MC piRNA (30 nt)
Test: pre-steady-state target cleavage rate (min^-1); MIWI and MILI are mouse PIWI proteins and EfPiwi is from a freshwater sponge; tags in brackets are library labels; higher = faster piRNA-guided slicing of the target
Conditions: guide: L1MC piRNA 5'p-UAACUAAAUACUAUGCAAGCUGUAGGUCCU
Outline: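 Cleave-'n-Seq measured uncleaved targets by sequencing after a transcribed, DNA-blocked target RNA library […] was mixed with 1 nM active affinity-purified piRISC holding one synthetic guide, with or without 500 nM GTSF1 partner protein, at 33 °C in HEPES–potassium acetate buffer for 0–8 or 0–960 min. Counts were normalised to depth and to weakly complementary targets, three trials were pooled, and k3 was capped at 0.0001 min^-1. A burst-and-steady-state fit gave the pre-steady-state cleavage rate.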

[1] = auxiliary factor: 500 nM mouse GTSF1
[2] = auxiliary factor: none (no GTSF1)
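Further: 1 nM active piRISC with 0.1 nM target library at 33 °C single turnover.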

Sequence | pre-steady-state target cleavage rate [1] | pre-steady-state target cleavage rate [2]
UCCUGGAUGUGCUUGCAAAGUAAUUAGUUA | 0.0103 ± 0.0034 | 0.00355 ± 0.0018
UCCUCCUUCAGCUUGCAUACUAUUUAGUUA | 0.329 ± 0.024 | 0.031 ± 0.0064
UCCUCCUACAGCUUGCUUACUAUUUAGUUA | 0.531 ± 0.025 | 0.0111 ± 0.0027
AGGACCUACUGCUUGCAUACUAUUUAGUUA | 0.325 ± 0.015 | 0.0325 ± 0.0055
UCGACCUACAGCUUGCAAUGUAUUUAGUAA | 0.341 ± 0.037 | 0.00256 ± 0.002
UCCUGCUACAGGUUGCAAAGUAUUUAGUUA | 1.11 ± 0.066 | 0.0219 ± 0.0044
UCGACCUACAGCUUGCAUAGUAUAAUGUAA | 0.205 ± 0.031 | 0.00301 ± 0.0027
UCGACCUACAGCUUGCAUAGAUUUUAGUUA | 0.16 ± 0.019 | 0.00625 ± 0.0027
UGGACCUACAGCUUGGAUAGUAUUUUGUUA | 0.796 ± 0.065 | 0.0317 ± 0.0053
UCCUGGAAGAGGUUGCAUAGUAUUUAGUUA | 0.357 ± 0.03 | 0.00453 ± 0.0025
UCGACCUAGAGCUUGCAUAGUAUUUAGAAA | 0.441 ± 0.048 | 0.00689 ± 0.0021
UGGAACUACAGCUUGCAUAGUAUUUAGUUA | 1.09 ± 0.041 | 0.0698 ± 0.011
UCCUGCUAGAGCUUGCAUAGUAUUAAGUUA | 0.679 ± 0.067 | 0.0107 ± 0.0041
UGGACCUACAGCUAGCAUAGAAUUUAGUUA | 0.382 ± 0.022 | 0.00986 ± 0.0039
UCCUGGAUGUGCUUGCAUAGUAUGUAGUUA | 0.106 ± 0.017 | 0.027 ± 0.0064
UCCUGGUACAGCAUGCAAAGUAUUUAGUUA | 0.746 ± 0.034 | 0.0193 ± 0.0046
UCCUGGAUGAGGUUGCUUAGUAUUUAGUUA | 0.0351 ± 0.0041 | 0.00323 ± 0.003
UCCUGGAUCAGCUUGCAUAGUAUGUUAGUUA | 0.588 ± 0.032 | 0.0104 ± 0.0029
UCCUGCUACAGCUUGCAUAGUAGUUUAGUUA | 0.344 ± 0.028 | 0.00542 ± 0.0022
AGCACCUACAGCUAGCAUAGUAUUUAGUUA | 0.915 ± 0.08 | 0.0192 ± 0.0068
UCCUCCUACAGCUAGCUUAGUAUUUAGUUA | 0.574 ± 0.022 | 0.0068 ± 0.0019
UCCUGGAUGUCCUUGCAUAGUAGUUAGUUA | 0.00603 ± 0.0046 | 0.00268 ± 0.0023
AGGACCUACAGGAAGCAUAGUAUUUAGUUA | 0.977 ± 0.08 | 0.0104 ± 0.0029
AGGACCUACAGCUUGCAUUGUAUUUACUUA | 0.372 ± 0.052 | 0.0183 ± 0.0044
UCCUGGUACAGCUUGCAUAGUAUUUAGUCUA | 0.0829 ± 0.026 | 0.00718 ± 0.0028
UCCUGCUUCAGCUUGCAUACUAUUUAGUUA | 0.371 ± 0.016 | 0.0289 ± 0.0066
UGGACCUACAGCUUGCAUAGUAUUAUGUUA | 0.333 ± 0.039 | 0.0173 ± 0.0035
AGCACCUACAGCUUGCAUAGUAAUUAGUUA | 1.01 ± 0.15 | 0.0278 ± 0.0099

Sequence | pre-steady-state target cleavage rate [1] | pre-steady-state target cleavage rate [2]
UCCUCCUACAGCUUGCAUAGUAUUUCAGUUA | 0.859 ± 0.093 | 0.012 ± 0.0034
UGGACCUACACCUUGCAUAGUAUUUAGAAA | 0.42 ± 0.059 | 0.0133 ± 0.0042
UCCUGGAUCAGCUUGCAAAGUAUUUAGUAA | 0.684 ± 0.047 | 0.0174 ± 0.0048
UCCUGCUACAGCUUCCUUAGUAUUUAGUUA | 0.422 ± 0.046 | 0.00305 ± 0.0021
UCGACCAUCAGCUUGCAUAGUAUUUAGUUA | 1.2 ± 0.043 | 0.0929 ± 0.016
UCCUGGAUGUCCUUGCAUAUUAUUUAGUUA | 0.0546 ± 0.013 | 0.00824 ± 0.003
UCCUGGUACAGGUUGCAUACUAUUUAGUUA | 0.366 ± 0.064 | 0.013 ± 0.0054
UCCUGGAAAGCUUGCAUAGUAUUUAGUUA | 0.971 ± 0.052 | 0.059 ± 0.016
AGGACGCUACAGCUUGCAUAGUAUUUAGUUA | 1.05 ± 0.08 | 0.0749 ± 0.014
UCCUGGAUGAGCUUGGAUAGAAUUUAGUUA | 0.0997 ± 0.029 | 0.0213 ± 0.0075
UCCUGCUACAGCUAGCAUACUAUUUAGUUA | 0.529 ± 0.038 | 0.017 ± 0.0038
UCCUGGAUCAGCCUGCAUAGUAUUUAGUUA | 1.02 ± 0.045 | 0.0431 ± 0.008
UCCUGCUACAGCGUUGCAUAGUAUUUAGUUA | 1.09 ± 0.067 | 0.0216 ± 0.0041
UGGACCUAGAGCUUGCAUUGUAUUUAGUUA | 0.848 ± 0.05 | 0.0259 ± 0.0071
UCCUGCUACAGCAUGCAAAGUAUUUAGUUA | 0.865 ± 0.066 | 0.0121 ± 0.003
UCCUGGAACAUGCUUGCAUAGUAUUUAGUUA | 0.696 ± 0.028 | 0.0566 ± 0.011
UCGACCUACAGCUUGCAUAGUAUUUAUUA | 0.224 ± 0.025 | 0.00303 ± 0.0029
UCCCCCUACAGCUUGCAUAGUAUUUAGUUA | 1.28 ± 0.039 | 0.0819 ± 0.014
UCCACCUAGAGGUUGCAUAGUAUUUAGUUA | 1.16 ± 0.17 | 0.0225 ± 0.0041
UCCUGGAACAGCUUGCAAAGUAUUUAGUAA | 0.599 ± 0.049 | 0.0202 ± 0.0052
AGGACGAUCAGCUUGCAUAGUAUUUUCAAA | 0.278 ± 0.043 | 0.00598 ± 0.002
UGGACCAUCAGCUUGCAUAGUAUUUAGUAA | 1.05 ± 0.053 | 0.0577 ± 0.013
UCCUGGAUCAGGUUGCAUAGUAAUUAGUUA | 0.113 ± 0.0098 | 0.00487 ± 0.0021
UCCUGGUACAGCUUGCAUUGUAUUUAGUUA | 0.394 ± 0.032 | 0.0216 ± 0.0049
UCCAGCUACAGCUUGGAUAGUAUUUAGUUA | 1.31 ± 0.12 | 0.0456 ± 0.0069
UCCUGGAUGUCCUUGCAUAGUAUCUAGUUA | 0.108 ± 0.022 | 0.00768 ± 0.0018
UCCUGCUACAGCUUGCAUUGUAUUUUGUUA | 0.649 ± 0.048 | 0.0164 ± 0.0042
